Drawing on the RNAGym collection of RNA variant scans (doi:10.1093/nar/gkz1192), this text covers self-cleavage for 34 variants.

The source gives no read counts; variants with many changes may rest on few reads.

B1: CPEB3 Ribozyme (parent)
chain: UAACAGGGGGCCACAGCAGAAGCGUUCACGUCGCAGCCCCUGUCAGAUUCUGGUGAAUCUGCGAAUUCUGCUGUAUAUCUC

In the data set the parent is B1. Put plainly: self-cleavage, relative activity (ratio to wild type); higher = more cleavage; in vitro, sequencing. The essentials: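 After error-prone PCR and barcoding, CPEB3 ribozyme mutant libraries were transcribed with T7 RNA polymerase at 37°C for 5 hours, then given 15 min with DNase I before an EDTA stop, and they cleaved during both steps. Reverse transcription with template switching preceded Illumina sequencing. Relative activity divides a variant's cleaved/total read fraction by the unmutated ribozyme's. At least 5 reads were required per variant, and three batches were averaged.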
Turning to CAACAGGGGGCCGCAGCAGAAGCGUUCACGUCGCAGCCCCUGUCAGGUUCUGGUGACUCUGCGGAUUCUGCUGUAUAUCUC [U1C A13G A47G A57C A64G], the self-cleavage is 0.43.
With CAACAGGGGGCCUCAGCAGAAGCGUUCACGUCGCUGCCCCCGUCAGAUUCAGGUGAAUCUGCGAAUUCUGCUGUGUAUCUC [U1C A13U A35U U41C U51A A75G], the self-cleavage came out at 0.19.
As to CAACAGGGGGCCUCAGCAGAAGCGUUCACGUCGCGGCCCCUGUCAGAUUCUGGUGAACCUGCGAAUUCUGCUGUAUAUCUC [U1C A13U A35G U58C], the self-cleavage is 1.2.
As to CAACAGGGGGCCACGGCAGAAGCGUUCAAGUCGCAGCCCCUGUCAGAUUCUGGUGGAUCCGCGAAUUCUGCUGUAUAUCUC [U1C A15G C29A A56G U60C], the self-cleavage amounted to 0.07.
With CAACAGGGGGCCGCAGCGGAAGCGUUCACGUCGCAGCCCCUGUCAGAUUCAGGCGAAUCUGCGAAUUCUGCCGUAUAUCUC [U1C A13G A18G U51A U54C U72C] the figure was 0.08; with CAACAGGGGGCCACGGCAGAAGCGUUCACGUCGCUGCCCCUGUCAGAUUCUGGCGAAUCUGCGAAUUCUGCUGUAUAUCUC [U1C A15G A35U U54C], 0.21; with CAACAGGGGGCCGCAGCAGAAGCGUUCACGUCGCAGCCCCUGUCAGAUUCUGGUGAAUCUGCGAAUUCUGCUGUAUUUCUC [U1C A13G A77U], 0.96.
The same measure for CAACAGGGGGCCGCAGCGGAAGCGUCCACGUCGCAGCCCCUGUCAGAUUCUGGUGAAUCUGCGAAUUCUGCUGUAUAUCUC [U1C A13G A18G U26C]: 0.06.
With CAACAGGGGGCCACGGCAGAAGCGUUCACGUCGCAGCCCCUGACAGAUUCUGGUGAAUCUGCGGAUUCUGCAGUAUAUCUC [U1C A15G U43A A64G U72A] the figure was 0.41; with CAACAGGGGGCCUCAGCAGAAGCGUUCACGUCGCAGCCCCCGUCUGAUUCUGGUGAAUCUGCGGAUUCUGCUGUAUAUCUC [U1C A13U U41C A45U A64G], 0.27; with CAACAGGGGGCCGCAGCAGGAGCGUUCACGUCGCAGCCCCUGUCGGAUUCUGGUGGAUCUGCGAAUUCUACUGUAUAUCUC [U1C A13G A20G A45G A56G G70A], 0.05.
In the case of CAACAGGGGGCCUCUGCAGAAGCGAUCACGUCGCAGCCCCUGACAGAUUCUGGUGAAUCUGCGAAUUCUGCUUCAUAUCUC [U1C A13U A15U U25A U43A G73U U74C], the self-cleavage came out at 0.06.
For the variant CAACAGGGGGCCACGGCAGAAGCGUUCACGUCGCAGCCCCUGUCAGAUUCUGGUGUAUCUGCGAAUCCUGCUGUAUAUCUC [U1C A15G A56U U67C], the self-cleavage is 0.12.
As for CAACAGGGGGCCUCAGCAGAAGCGUUCACGUCGCAGCCCCUGUCAGAUUCCGGUGAAUCUGCGGAUUCUGCUGUAUAUCAC [U1C A13U U51C A64G U80A], the self-cleavage was 0.71.
Regarding CAACAGGGGGCCACGGCAGAAGCGCUCACGUCGCAGCCCCCGUCAGAUUCUGGUGGAUCUGCGAAUUCUGCUGUAUAUCUC [U1C A15G U25C U41C A56G], the self-cleavage is 0.38.
The same measure for CAACAGGGGGCCGCAGCAGAAGCGUUCACGUCGCAGCCCCUGUCAGACUCUGGAGAAUCCGCGAAUUCUGCUGUAUAUCUC [U1C A13G U48C U54A U60C]: 0.07.
Take CAACAGGGGGCCGCAGCAGAAGCGUUCACGUCGCAGCCCCUGUCAGAUUCUGGUGAAUCCGCGAACUCUGCUGUAUAUCCC [U1C A13G U60C U66C U80C]: the self-cleavage amounted to 0.28.
The same measure for CAACAGGGGGCCACCGCAGACGCGUUCACGUCGCAGCCCUUGUCAGAUUCUGGUGGAUCUGCGAAUUCUGCUGUAUAUCUC [U1C A15C A21C C40U A56G]: 0.05; for CAACAGGGGGCCGCAGCAGAAGCGUUCAGGUCGCAGCCCCUGUCAGGUUCUGGUGAAUCUGCGAAUUCCGCUGUAUAUCUC [U1C A13G C29G A47G U69C]: 0.22.
As to CAACAGGGGGCCACGGCGGAAGCGUUCACGUCGCAGCCCCUGUCAGAUUCUGGUGAAUCUGCGAAUUCUGCUGUAUGUCUC [U1C A15G A18G A77G], the self-cleavage amounted to 0.51.
Take CAACAGGGGGCCGCAGCAGAAGCGUUCACGUCGCAGCACCAGUCAGGUUCUGGUGAAUCUGCGAAUUCUGCUGUAUAUCUC [U1C A13G C38A U41A A47G]: the self-cleavage was 0.25.
Regarding CAACAGGGGGCCGCAGCAGAAGCGUUCACGUCGCAUCCCCUGUCAGAUUCUGGUGAAUCUGCGAAUUCUGCUGUAUAUCUC [U1C A13G G36U], the self-cleavage amounted to 0.36.
With CAACAGGGGGCCGCAGCAGAAGCGUUCACGUCGCAGCCCCUGUCAGUUCCUGGUGAGUCUGCGAAUUCUGCUGUAUAUAUC [U1C A13G A47U U49C A57G C79A] the figure was 0.44; with CAACAGGGGGCCGCAGCAGAGGCGUUCACGCCGCAGCCCCUGCCAGAUUCUGGUGAAUCUGCGAAUUCUGCUGAAUAUCUC [U1C A13G A21G U31C U43C U74A], 0.44; with CAACAGGGGGCCGCAGCAGAAGCGUUCACGUCGCAGCCCCUGUCAGAUUCUGGUGAAUCUGCGAAUUCUGCAGUAUAUCUC [U1C A13G U72A], 0.39.
With CAACAGGGGGCCACGGCACGAGCGUUCGCGUCGCAGCCCCUGUCAGAUUCUGGUGAAUCUGCGAAUUCUACUGUAUAUCUC [U1C A15G G19C A20G A28G G70A] the figure was 0.41; with CAACAGGGGGCCACCGCAGAAGCGUUCUCGUCGCUGCCCCUGUCAGAUUCUGGUGAAUCUGCGAAUUCUGCUGUAUAUCUC [U1C A15C A28U A35U], 0.19; with CAACAGGGGGCCACGGCAGAAGCGUUCACGUCGCAGCCCCAGUCAGAUUCUGGUGAAUCUGCGAAUUCUGCUGUAUAUCUC [U1C A15G U41A], 0.08.
With CAACAGGGGGCCACGGCAGAAGCGUUCGCGUCGCAGCCCCUGUCAGAUUCUGGUGAAUCUGCGAAUUCUGCUGUAUAUCUC [U1C A15G A28G] the figure was 0.79.
For CAACAGGGGGCCACGGCAGAAGCGUUCACGUCGCAGCCCCUGUCUGAUUCUGGUGAAUCUGCGAAUUCUGCCGUAUAUCUC [U1C A15G A45U U72C], the self-cleavage was 0.21.
On to CAACAGGGGGCCGCAGCAGAAGCGCUCACGUCGCAGCCCCUGUCAGAUUCUGGUGAAUCUGCGAUUUCUACUGUAUAUCUC [U1C A13G U25C A65U G70A], for which the self-cleavage was 0.03.
Regarding CAACAGGGGGCCGCAGCAGAAGCGUUCACGUCGCAGCCCCUGUCAGAUUCUGGUGAAUCUGCGAAUUCCGCUGUAUGUUUC [U1C A13G U69C A77G C79U], the self-cleavage was 0.45.
Turning to CAACAGGGGGCCACGGCAGAAGCGUUCACCUCGCAGCCCCUGUCAGAUUCUGGUGUAUCUGCGAAUUCUGCUGUAUAUCUC [U1C A15G G30C A56U], the self-cleavage is 0.27.
In the case of CAACAGGGGGCCACGGCAGAUGCGUUCACGUCGCAGCCCCUGUCAGAUUCUGGUGAAUCUGCGAAUUCUGCUGUAUAUCUC [U1C A15G A21U], the self-cleavage is 0.14.
